This is one part of the list. Shown are side measurements of this screen, not its main read-out; they come without a call. Most of these compounds were active or inconclusive in the main read-out, so they are no random draw. The note in brackets gives the kind of curve behind each potency; many fits are weak.
Assay: qHTS Assay for Lipid Storage Modulators (AID 1519)
Settings: Drosophila S3 cells, BODIPY lipid droplet/cell ratio, laser cytometry; measured here: lipid (BODIPY) channel AC50; cells loaded with oleic acid
In short: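 Cells seeded at 5,000 per well were treated with compounds over a concentration series and loaded with oleic acid (400 uM, as added). Lipid droplet fluorescence (488 nm excitation, 500-530 nm channel) was read by laser-scanning cytometry and normalized to 20 uM Triacsin C.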
Tags give direction and shape of the fitted curve.

SMILES | AC50
FC(F)(F)c1ccccc1-c1nc(NC2CC2)c2ccccc2n1 | 2820 nM [rising, partial curve]
C[N+](C)(C)CCOC(N)=O | 35500 nM [rising, single point]
CC[C@@H](C)[C@H]1O[C@]2(CC[C@@H]1C)C[C@@H]1C[C@H](C/C=C(/C)[C@H](O[C@@H]3C[C@H](OC)[C@H](O[C@@H]4C[C@H](OC)[C@@H](O)[C@H](C)O4)[C@H](C)O3)[C@@H](C)/C=C\C=C3CO[C@@H]4[C@H](O)C(C)=C[C@@H](C(=O)O1)[C@]34O)O2 (tested in a mixture with another compound) | 2820 nM [rising, full curve, poor fit]
COc1cccc(-c2nccc(NCc3ccccc3)n2)c1 | 2240 nM [rising, partial curve]
N#CCCn1c(=O)c(-c2cccs2)nc2cnc(Nc3ccccc3)nc21 | 5620 nM [falling, full curve, poor fit]
COCCn1c(=O)c(CCc2ccccc2)nc2cnc(N3CCNCC3)nc21 | 2820 nM [rising, partial curve]
O=c1c(-c2ccc(F)cc2)nc2cncnc2n1Cc1ccc(F)cc1 | 562 nM [rising, full curve, poor fit]
COc1ccccc1-c1nc(N2CCN(C)CC2)c2ccccc2n1 | 17800 nM [rising, partial curve, poor fit]
COc1cccc(-c2ccc3ncnc(N4CCOCC4)c3c2)c1 | 8910 nM [rising, partial curve, poor fit]
N#C/C(=C\c1ccc(O)c(O)c1)C(=O)OCCc1cccs1 | 7940 nM [rising, full curve, poor fit]
O=c1c(-c2cccs2)nc2cnc(N3CCNCC3)nc2n1-c1ccccc1 | 20000 nM [rising, partial curve]
CN(C)c1ccc(-c2cncnc2NCCc2cnc[nH]2)cc1 | 631 nM [rising, full curve]
COc1ncc2nc(CCc3ccccc3)c(=O)n(C)c2n1 | 100 nM [rising, full curve]
COc1ccc2c(=O)ccoc2c1 | 10000 nM [rising, partial curve, poor fit]
CSc1nc(NC2CCCC2)c([N+](=O)[O-])c(NC2CCCC2)n1 | 12600 nM [rising, partial curve]
COc1ccc2[nH]cc(CCNc3ccnc(-c4cccnc4)n3)c2c1 | 31.6 nM [rising, full curve, poor fit]
COc1ccc2[nH]cc(CCNc3ncncc3-c3ccccc3Cl)c2c1 | 1580 nM [rising, partial curve, poor fit]
COc1ccc(-n2c(=O)c(CCc3ccccc3)nc3cncnc32)cc1 | 3160 nM [rising, full curve]
c1cc(NC2CC2)nc(-c2ccoc2)n1 | 1580 nM [rising, full curve]
O=c1cc(-c2cccc(O)c2)oc2c(O)c(O)ccc12 | 17800 nM [rising, partial curve, poor fit]

SMILES | AC50
c1ccc(CNc2nc(-c3ccc4c(c3)OCO4)nc3ccccc23)cc1 | 8.91 nM [rising, full curve, poor fit]
CCNc1ncc2nc(-c3cc(F)cc(F)c3)c(=O)n(Cc3cccs3)c2n1 | 794 nM [rising, partial curve]
COCCn1c(=O)c(CCc2ccccc2)nc2cnc(Oc3ccccc3)nc21 | 2240 nM [rising, full curve, poor fit]
COc1ccc(Oc2ncc3ncc(=O)n(C4CC4)c3n2)cc1 | 2820 nM [rising, full curve, poor fit]
COc1cccc(Nc2ncc3nc(-c4cccs4)c(=O)n(-c4ccccc4)c3n2)c1 | 22400 nM [falling, single point]
COc1ccccc1-c1cc(NCc2cccs2)ncn1 | 1580 nM [rising, full curve]
COCCn1c(=O)c(C)nc2cncnc21 | 10000 nM [rising, partial curve]
C[C@@]12CCC(OC(=O)c3ccccc3)CC1CCc1ccccc12 (stereo not given in full) | 20000 nM [rising, partial curve]
CN1CCN(c2nc(-c3ccccc3C(F)(F)F)nc3ccccc23)CC1 | 5010 nM [rising, single point]
NCCCCCCNS(=O)(=O)c1ccc2c(Cl)cccc2c1 | 31600 nM [rising, partial curve, poor fit]
COc1cc2c(C=O)c3c4c(cc(OC)c(OC)c4c2cc1OC)CCN3C | 708 nM [rising, full curve]
O=c1c(-c2cccs2)nc2cnc(N3CCNCC3)nc2n1Cc1cccs1 | 39800 nM [falling, single point]
CN(C)c1ccc(-c2nccc(Nc3ccc(F)cc3)n2)cc1 | 1260 nM [rising, full curve]
COc1ccc(-n2c(=O)c(C)nc3cnc(N4CCOCC4)nc32)cc1 | 2240 nM [rising, full curve]
COc1cccc2c1C(=O)CC(c1ccccc1)O2 (stereo not given) | 14100 nM [rising, partial curve, poor fit]
COCCn1c(=O)c(-c2cn(C)c3ccccc23)nc2cncnc21 | 501 nM [rising, full curve]
FC(F)(F)c1ccccc1-c1nccc(-n2ccnc2)n1 | 398 nM [rising, full curve, poor fit]
COc1ccc(NC(=O)N2CCC3(CC2)CCN(C(=O)c2cccn2C)CC3)cc1 | 282 nM [rising, full curve, poor fit]
COCCNc1nc(-c2ccoc2)nc2ccccc12 | 708 nM [rising, full curve]
CCNc1ncc2nc(-c3cccs3)c(=O)n(CCc3ccccc3)c2n1 | 708 nM [rising, full curve]

Reference: PubChem BioAssay (NCATS)
